A number of entries come with more than one value. This list holds those alone. An entry can have further records. The records of an entry repeat one measurement (runs, samples, wells, individuals or studies).
Tests used:
Format in all cases: toxicity, cell-based
HEK-293T = test: Multiplex assay against HEK293T; settings: human
In short: (§1)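 Values for tubulin, mitochondrial-mass and membrane-permeability phenotypes are per cents of cells with healthy nuclei. These cells were identified by CellPathfinder machine-learning gating of live cells that had been stained at seeding with Hoechst33342, BioTracker Green Microtubule Cytoskeleton Dye, MitoTracker Red and Annexin V Alexa Fluor 680 and imaged on a CQ1 microscope at 37°C and 5% CO2 after compound addition. The gating first set Hoechst high-intensity objects apart from normal cells, then split normal cells into healthy, pyknosed or fragmented nuclei, and pyknosed cells into mitotic or apoptotic.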

Fibroblast = test: Multiplex assay against human fibroblast; in short: as §1
U2OS = test: Multiplex assay against U2OS; settings: human; in short: as §1
[1] = 12 h, 1 µM, compound concentration 1 uM
[2] = 12 h, 10 µM, compound concentration 10 uM
[3] = 24 h, 1 µM, compound concentration 1 uM
[4] = 48 h, 1 µM, compound concentration 1 uM
[5] = 48 h, 10 µM, compound concentration 10 uM
[6] = 24 h, 10 µM, compound concentration 10 uM

O=C(Nc1ccccc1Cl)c1cnc2ccc(C3CCNCC3)cn12.O=C(O)C(=O)O
Population Healthy Nuclei (%) (HEK-293T; [1]): 41.9% and 11.19%
Population Mitochondria Different-Phenotype (%) (HEK-293T; [1]): 56.6% and 6.25%
Population Healthy Nuclei (%) (HEK-293T; [2]): 27.27% and 7.43%
Population Healthy Nuclei (%) (HEK-293T; [3]): 66.34% and 15.38%
Population Pyknosed Nuclei (%) (HEK-293T; [4]): 12.89% and 60.87%
Population Tubulin-Different-Phenotype (%) (HEK-293T; [4]): 4.77% and 52.83%
Total Cell Count (HEK-293T; [4]): 1002 and 161
Total Cell Count (HEK-293T; [5]): 483 and 149
Population Apoptotic (%) (Fibroblast; [1]): 6.9% and 26.83%
Population Fragmented Nuclei (%) (Fibroblast; [2]): 10.99% and 0.43%
Population Fragmented Nuclei (%) (Fibroblast; [6]): 13.14% and 1.41%
Population Apoptotic (%) (Fibroblast; [4]): 10% and 35.48%
Population Membrane Permeable-Phenotype (%) (Fibroblast; [5]): 8.47% and 37.37%

Cc1ccc(C(C)(O)c2nc3ccccc3s2)c(C)c1 (stereo not drawn)
Population Fragmented Nuclei (%) (HEK-293T; [1]): 19% and 4%
Population Mitotic Cells (%) (U2OS; [2]): 0% and 33%
Population Mitotic Cells (%) (U2OS; [5]): 3% and 14%

N#Cc1cc(F)cc(-c2nc(-c3ccc(F)cn3)no2)c1
Population Mitotic Cells (%) (U2OS; [1]): 44% and 0%
Population Fragmented Nuclei (%) (U2OS; [6]): 32% and 9%
Population Membrane Permeable-Phenotype (%) (Fibroblast; [1]): 2% and 15%
Population Membrane Permeable-Phenotype (%) (Fibroblast; [3]): 1% and 12%
Population Tubulin-Different-Phenotype (%) (Fibroblast; [3]): 18% and 58%
Population Fragmented Nuclei (%) (Fibroblast; [6]): 12% and 47%
Population Mitotic Cells (%) (Fibroblast; [5]): 16% and 50%

CSCC[C@H](NC=O)C(=O)N[C@@H](CC(C)C)C(=O)N[C@@H](Cc1ccccc1)C(=O)O
Population Mitotic Cells (%) (U2OS; [1]): 26% and 0%
Population Mitotic Cells (%) (U2OS; [4]): 15% and 3%
Population Membrane Permeable-Phenotype (%) (U2OS; [5]): 4% and 80%
Population Mitochondria Different-Phenotype (%) (U2OS; [5]): 2% and 50%
Total Cell Count (U2OS; [5]): 362 and 41

CN1CCC(C(=O)c2cccc(NC(=O)c3c(F)cc(F)cc3F)n2)CC1
Population Mitotic Cells (%) (U2OS; [1]): 10% and 42%

Cc1noc(-c2ccc(-c3ccc(CC(=O)O)cc3)cc2)c1NC(=O)O[C@H](C)c1ccccc1Cl
Population Mitotic Cells (%) (U2OS; [3]): 3% and 22%
Population Mitotic Cells (%) (U2OS; [4]): 2% and 13%

CCc1nn2c(C)cc(C)nc2c1Cc1ccc(-c2nnc(C3CCNCC3)o2)cc1
Population Fragmented Nuclei (%) (U2OS; [1]): 28% and 9%
Population Mitotic Cells (%) (U2OS; [1]): 57% and 14%
Population Tubulin-Different-Phenotype (%) (U2OS; [6]): 7% and 28%
Population Tubulin-Different-Phenotype (%) (U2OS; [5]): 3% and 18%
Population Apoptotic (%) (Fibroblast; [2]): 51% and 14%
Population Mitochondria Different-Phenotype (%) (Fibroblast; [3]): 3% and 15%

C[C@@H]1CC(=O)Nc2cccc(-c3ccc4c(c3)c(-c3cnn(C)c3)nn4C)c2N1
Population Mitotic Cells (%) (U2OS; [2]): 13% and 66%
Total Cell Count (U2OS; [2]): 235 and 76
Population Mitochondria Different-Phenotype (%) (Fibroblast; [2]): 19% and 5%
Population Mitochondria Different-Phenotype (%) (Fibroblast; [6]): 15% and 4%
Population Membrane Permeable-Phenotype (%) (Fibroblast; [4]): 1% and 12%
Population Mitochondria Different-Phenotype (%) (Fibroblast; [5]): 19% and 2%
Population Mitotic Cells (%) (Fibroblast; [5]): 7% and 39%

Cn1cnc(-c2cnc(O[C@H]3CCN(C(=O)Cc4ccc(OC(F)(F)F)cc4)C[C@H]3F)c(C(N)=O)c2)c1
Population Healthy Nuclei (%) (HEK-293T; [1]): 58.82% and 18.68%
Population Healthy Nuclei (%) (HEK-293T; [2]): 41.3% and 12.59%
Population Healthy Nuclei (%) (HEK-293T; [6]): 60% and 19.75%

CCN1CCN(Cc2ccc(Nc3ncc(F)c(-c4cc(F)c5nc(C)n(C(C)C)c5c4)n3)nc2)CC1.CS(=O)(=O)O
Population Mitochondria Different-Phenotype (%) (HEK-293T; [1]): 47.06% and 14.29%
Population Healthy Nuclei (%) (HEK-293T; [2]): 20.8% and 5.51%
Population Pyknosed Nuclei (%) (HEK-293T; [4]): 12.33% and 44.31%
Population Tubulin-Different-Phenotype (%) (HEK-293T; [4]): 2.99% and 65.56%
Total Cell Count (HEK-293T; [4]): 788 and 167
Population Mitochondria Different-Phenotype (%) (Fibroblast; [3]): 22.86% and 7.56%
Population Mitochondria Different-Phenotype (%) (Fibroblast; [4]): 19.23% and 3.43%
Population Mitochondria Different-Phenotype (%) (Fibroblast; [5]): 18.97% and 4.75%

COc1c(C)cc(NC(=O)c2nn(Cc3ccc(F)cc3)c3c2CN(C(=O)c2ccc[nH]2)C[C@]3(C)C(N)=O)cc1C
Population Mitochondria Different-Phenotype (%) (Fibroblast; [5]): 54% and 16%

CC(F)(F)CN1CCOc2c(nn(-c3ccccc3Cl)c2-c2ccc(Cl)cc2)C1=O
Population Mitochondria Different-Phenotype (%) (Fibroblast; [4]): 2% and 21%
Population Mitochondria Different-Phenotype (%) (Fibroblast; [5]): 22% and 7%

COc1cc(C(=O)N2CC[C@@H](O)[C@@H](N)C2)cc2nc(-c3cc4ccccc4n3CC3CC3)n(C)c12.Cl
Population Mitochondria Different-Phenotype (%) (Fibroblast; [3]): 5% and 20%

CSc1ccccc1N1CCN(CCCCCC(=O)NC2CCCc3ccccc32)CC1.Cl (stereo not drawn)
Population Mitotic Cells (%) (U2OS; [4]): 35% and 4%
Population Mitotic Cells (%) (Fibroblast; [6]): 9% and 33%
Population Mitotic Cells (%) (Fibroblast; [5]): 8% and 31%

COc1ccc2c(c1)C(C(=O)N(Cc1ccc(N(C)C)cc1)c1ccc(C(C)C)cc1)CCC2.Cl (stereo not drawn)
Population Mitotic Cells (%) (U2OS; [4]): 20% and 6%
Population Mitotic Cells (%) (U2OS; [5]): 26% and 7%

O=c1cccc2n1C[C@@H]1CNC[C@H]2C1 [CYTISINICLINE]
Population Tubulin-Different-Phenotype (%) (HEK-293T; [1]): 6.75% and 35.29%
Population Healthy Nuclei (%) (HEK-293T; [2]): 53.52% and 15.61%
Population Tubulin-Different-Phenotype (%) (HEK-293T; [2]): 4.61% and 14.81%
Total Cell Count (HEK-293T; [3]): 503 and 150
Population Pyknosed Nuclei (%) (HEK-293T; [6]): 16.44% and 51.87%
Population Apoptotic (%) (HEK-293T; [4]): 5.71% and 33.33%
Population Pyknosed Nuclei (%) (HEK-293T; [4]): 9.18% and 34.33%
Population Tubulin-Different-Phenotype (%) (HEK-293T; [4]): 1.29% and 29.03%
Total Cell Count (HEK-293T; [4]): 1144 and 201
Population Tubulin-Different-Phenotype (%) (HEK-293T; [5]): 0.24% and 14.23%
Total Cell Count (HEK-293T; [5]): 1475 and 355
Population Mitochondria Different-Phenotype (%) (Fibroblast; [4]): 16.91% and 2.36%
Population Mitochondria Different-Phenotype (%) (Fibroblast; [5]): 14.62% and 2.96%

Cl.NCCc1ccc(O)c(O)c1 [DOPAMINE HYDROCHLORIDE]
Population Tubulin-Different-Phenotype (%) (Fibroblast; [2]): 14% and 44%

CNC[C@H](O)c1ccc(O)c(O)c1 [EPINEPHRINE]
Population Hoechst High Intensity Objects (%) (HEK-293T; [2]): 9% and 40%
Population Hoechst High Intensity Objects (%) (HEK-293T; [6]): 8% and 39%
Population Hoechst High Intensity Objects (%) (HEK-293T; [5]): 3% and 21%
Population Membrane Permeable-Phenotype (%) (Fibroblast; [1]): 1% and 13%
Population Membrane Permeable-Phenotype (%) (Fibroblast; [2]): 1% and 12%
Population Fragmented Nuclei (%) (Fibroblast; [3]): 12% and 38%

CSc1nc(NC2CCCC2)c([N+](=O)[O-])c(NC2CCCC2)n1 [GS-39783]
Population Mitochondria Different-Phenotype (%) (Fibroblast; [2]): 5% and 16%
Population Membrane Permeable-Phenotype (%) (Fibroblast; [4]): 1% and 23%

CC[C@H](Nc1ncnc2[nH]cnc12)c1nc2cccc(F)c2c(=O)n1-c1ccccc1 [IDELALISIB]
Population Tubulin-Different-Phenotype (%) (HEK-293T; [1]): 2.78% and 48.72%
Population Healthy Nuclei (%) (HEK-293T; [2]): 35.27% and 8.5%
Population Pyknosed Nuclei (%) (HEK-293T; [4]): 10.19% and 30.65%
Population Tubulin-Different-Phenotype (%) (HEK-293T; [4]): 0.82% and 29.94%
Total Cell Count (HEK-293T; [4]): 1256 and 262
Population Tubulin-Different-Phenotype (%) (HEK-293T; [5]): 12.37% and 60.42%
Population Mitochondria Different-Phenotype (%) (U2OS; [2]): 0.34% and 20.18%
Population Tubulin-Different-Phenotype (%) (U2OS; [2]): 12.84% and 2.75%
Population Mitochondria Different-Phenotype (%) (U2OS; [6]): 0.83% and 22.31%
Population Mitochondria Different-Phenotype (%) (U2OS; [5]): 0.69% and 13.95%
Total Cell Count (U2OS; [5]): 687 and 218

CCCCCCNC(=O)Nc1ccc(S(=O)(=O)Nc2ccc(CCNC[C@H](O)COc3ccc(O)cc3)cc2)cc1 [L-755507]
Population Mitotic Cells (%) (U2OS; [5]): 20% and 5%

COC[C@@H](c1ccc(C(F)(F)F)cc1)N1CCN(C2(C)CCN(C(=O)c3c(C)ncnc3C)CC2)C[C@@H]1C.O=C(O)/C=C\C(=O)O [VICRIVIROC MALEATE]
Population Mitotic Cells (%) (U2OS; [2]): 13% and 66%
Population Mitochondria Different-Phenotype (%) (U2OS; [3]): 3% and 14%
Population Mitotic Cells (%) (U2OS; [3]): 22% and 6%
Total Cell Count (U2OS; [6]): 326 and 99
Population Mitotic Cells (%) (U2OS; [4]): 21% and 6%
Population Mitotic Cells (%) (U2OS; [5]): 20% and 6%
Total Cell Count (U2OS; [5]): 437 and 140

O=C(NCCNCC(O)COc1ccc(O)cc1)N1CCOCC1.O=C(NCCNCC(O)COc1ccc(O)cc1)N1CCOCC1.O=C(O)/C=C/C(=O)O (stereo not drawn) [XAMOTEROL FUMARATE]
Population Membrane Permeable-Phenotype (%) (Fibroblast; [1]): 1% and 16%
Population Membrane Permeable-Phenotype (%) (Fibroblast; [3]): 2% and 18%
Population Tubulin-Different-Phenotype (%) (Fibroblast; [4]): 21% and 65%

Source: ChEMBL document CHEMBL5724801, “EUbOPEN Chemogenomics Library - Multiplex” (2024)
